Reference: PMC9911399, “Two distinct binding modes provide the RNA-binding protein RbFox with extraordinary sequence specificity”
Positions count from the first letter of the chain named. Some of the results follow.

T1: RBFOX1 RRM RbFoxmut (Fox-RRM*) (Homo sapiens, UniProt Q9NWB1 109-208, R118D;E147R;N151S;E152T)
T1 sequence: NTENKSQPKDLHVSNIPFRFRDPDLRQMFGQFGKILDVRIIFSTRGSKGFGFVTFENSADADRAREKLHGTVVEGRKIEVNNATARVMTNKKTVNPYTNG

B1: AUUAUGU (DNA:RNA)
RNA: GGGAGACCGGAAUUCAGAUUGUCCAUUAUGUUUAAAUCCCGUCGUAGCCACCA
DNA 1: CAATCTGAATTCCGGTCTCCC
DNA 2: TGGTGGCTACGACGGGATT
B2: AGCCCGG (DNA:RNA)
RNA: B1 RNA with U26G, U27C, A28C, U29C, U31G
DNA 1: CAATCTGAATTCCGGTCTCCC
DNA 2: TGGTGGCTACGACGGGATT
B3: GAUGUCU (DNA:RNA)
RNA: B1 RNA with A25G, U26A, A28G, G30C
DNA 1: CAATCTGAATTCCGGTCTCCC
DNA 2: TGGTGGCTACGACGGGATT
B4: CUGCAUA (DNA:RNA)
RNA: B1 RNA with A25C, U27G, A28C, U29A, G30U, U31A
DNA 1: CAATCTGAATTCCGGTCTCCC
DNA 2: TGGTGGCTACGACGGGATT
B5: GUAUCGA (DNA:RNA)
RNA: B1 RNA with A25G, U27A, A28U, U29C, U31A
DNA 1: CAATCTGAATTCCGGTCTCCC
DNA 2: TGGTGGCTACGACGGGATT
B6: GUAACGG (DNA:RNA)
RNA: B1 RNA with A25G, U27A, U29C, U31G
DNA 1: CAATCTGAATTCCGGTCTCCC
DNA 2: TGGTGGCTACGACGGGATT
B7: UCCAUUG (DNA:RNA)
RNA: B1 RNA with A25U, U26C, U27C, G30U, U31G
DNA 1: CAATCTGAATTCCGGTCTCCC
DNA 2: TGGTGGCTACGACGGGATT
B8: AACAAUC (DNA:RNA)
RNA: B1 RNA with U26A, U27C, U29A, G30U, U31C
DNA 1: CAATCTGAATTCCGGTCTCCC
DNA 2: TGGTGGCTACGACGGGATT
B9: CACGCCU (DNA:RNA)
RNA: B1 RNA with A25C, U26A, U27C, A28G, U29C, G30C
DNA 1: CAATCTGAATTCCGGTCTCCC
DNA 2: TGGTGGCTACGACGGGATT

Target: T1, RBFOX1 RRM RbFoxmut (Fox-RRM*)
Test: EMSA; HiTS-Eq, 1 nM pool, 10 min; buffer printed only for the single-RNA assays: 10 mM Tris pH 7.5, 150 mM NaCl, 3.4 mM EDTA, 0.001% NP-40, 30 C
Settings: tags: His6 N-terminal (pET28a); label: 5' 32P
Summary of the method: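 Purified wild-type or mutant RbFox RRM at increasing concentrations was equilibrated with 1 nM of 5′-radiolabelled RNA carrying 7 randomized nucleotides for 10 min in 50 µL. Unbound RNA was separated by 8% native PAGE and sequenced. Relative association constants came from read-count changes of each RNA species compared with the control reaction, normalised to the cognate motif.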

Compared with B1, B2 is lower in binding signal: 0.167 KA relative to UGCAUGU for the first, 0.0835 KA relative to UGCAUGU for the second.

First: B3
Second: B4
The binding signal of the first is lower: 0.0917 KA relative to UGCAUGU for the first, 0.144 KA relative to UGCAUGU for the second.

First: B5
Second: B6
The binding signal of the first is higher: 0.209 KA relative to UGCAUGU for the first, 0.0695 KA relative to UGCAUGU for the second.

First: B7
Second: B8
The binding signal of the first is higher: 0.132 KA relative to UGCAUGU for the first, 0.0295 KA relative to UGCAUGU for the second.

B9 was tested, and the binding signal was 0.112 KA relative to UGCAUGU.
